Experimental data reported in PubChem BioAssay AID1963576 (National Center for Advancing Translational Sciences (NCATS), 2024).
The whole screen tested about 46,000 compounds, of which about 60 (0.1%) were called active. Another 3% or so got no clear call; they are omitted. Calls come from the whole dose curve; as a rule, active = well fitted inhibition curve with a large enough effect; inconclusive = small, poorly fitted or top-dose-only effect; inactive = no such curve, though single readings can be large or run the other way. Some of the results follow.

Experiment: Primary qHTS assay for Inhibitors of ovarian cancer metastasis using an organotypic tumor microenvironment (TME) model.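 For activity change, negative = inhibition: plate controls were DMSO wells for no effect and tomatine positive control wells for full effect.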 Note: nearly all actives have a fitted effect of over 65% in size.
Conditions: SKOV3ip1-GFP adhesion/invasion on 3D omental model, fluorescence; series mostly up to 45.8 µM; activity change, negative = inhibition: at the top concentration
Summary of the method: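 qHTS, 4-pt dose (0.36-46 umol/L); SKOV3ip1-GFP, 1,200 cells/well, no FBS; primary omental fibroblast/mesothelial co-culture 48 h pre-grown; 2 h RT + 16 h 37 C; PBS wash, 4% PFA; GFP count 488/509 nm.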

| Structure (SMILES) | activity change, negative = inhibition | outcome |
| --- | --- | --- |
| Cc1nc2sccn2c(=O)c1S(=O)(=O)Nc1ccc(N2CCN(C(=O)C(C)C)CC2)cc1 | inactive: 1.98% |  |
| CCOC(=O)c1ccn(-c2nc(-c3cccc(OC)c3)cc(C(F)(F)F)n2)n1 | inactive: -10.4% |  |
| Cc1ccc(N2CC(NC(=O)C3CC3)CC2=O)cc1C (stereo not drawn) | inactive: -3.27% |  |
| COc1cccc(CNCCSc2nnnn2C)c1OCc1ccc(F)cc1 |  | inactive |
| CC(C)c1ccc(NC(=O)CCn2c(=O)c3cccn3c3ccccc32)cc1 | inactive: 3.31% |  |
| COc1cccc(NC(=O)N(Cc2c[nH]c3ccccc23)C2CCCCC2)c1 | inactive: 0.613% |  |
| Cc1ccc(C(CC(=O)Nc2ccc(F)c(Cl)c2)N2Cc3ccccc3C2=O)cc1 (stereo not drawn) | inactive: 11.7% |  |
| Cc1cccc(CNC(=O)C2CCN(S(=O)(=O)c3ccc4c(c3)CCCN4C(=O)C3CCC3)CC2)c1 | inactive: 0.94% |  |
| CCCc1cnc2c(c1SCC(=O)Nc1ccccc1F)c(=O)n(C)c(=O)n2C | inactive: -16.5% |  |
| CCOc1ccc(C(c2c(O)cc(C)n(Cc3ccco3)c2=O)N2CCN(c3ccccc3)CC2)cc1 (stereo not drawn) | inactive: 8.31% |  |
| COc1ccc(NC(=O)CSC2=Nc3ccccc3C3=NC(CC(=O)NCc4ccc5c(c4)OCO5)C(=O)N23)cc1 (stereo not drawn) | inactive: 2.63% |  |
| Cc1cccc(N2CCN(S(=O)(=O)c3c(C(=O)N4CCC(C)CC4)c(C)n(C)c3C)CC2)c1C | inactive: -5.32% |  |
| COC(=O)c1ccc(NC(=O)CC2C(=O)N(c3ccccc3)C(=O)N2Cc2ccco2)cc1 (stereo not drawn) | inactive: 2.32% |  |
| Cc1ccc(NC(=O)Cn2cnc3sc(C)c(S(=O)(=O)N4CCN(c5ncccn5)CC4)c3c2=O)cc1F | inactive: 7.77% |  |
| Cn1nnnc1SCCCNCc1cc(Cl)ccc1OCc1ccccc1F | inactive: -1.56% |  |
| CCCCCc1nn2cc(-c3ccccc3)nc2s1 |  | inactive |
| CCc1nn(Cc2c(C)cc(C)cc2C)c(=O)c2cc3cc(C)ccc3n12 | inactive: 9.84% |  |
| O=C(Nc1ccc(F)cc1F)N1CCN(c2ccc(Cl)c(Cl)c2)CC1 | inactive: -28.9% |  |
| CCCC12CN3CC(CCC)(CN(C1)C3c1c(C)[nH]c(=O)[nH]c1=O)C2=O (stereo not drawn) | inactive: 0.406% |  |
| COc1cc(Nc2ncc3c(n2)CCN(Cc2cc(F)cc(F)c2)C3)cc(OC)c1 |  | inactive |
| Cc1ccc(C2C=C(c3ccc(Cl)cc3)Nc3nc(NC(=O)c4ccco4)nn32)cc1 (stereo not drawn) | inactive: 0.627% |  |
| CN(C)CCNC(=O)c1ccc(Cn2c(=O)c3cccn3c3cccnc32)cc1 |  | inactive |
| Cn1nc(-c2ccc(N3CCCCC3)c(NC(=O)c3ccc(Cl)cc3)c2)c2ccccc2c1=O | inactive: 0.338% |  |
| CCOc1ccc(-c2csc(-c3c(N)c(C(=O)c4ccc5c(c4)OCO5)n4ccccc34)n2)cc1 |  | inactive |

| Structure (SMILES) | activity change, negative = inhibition | outcome |
| --- | --- | --- |
| COc1ccc(C)cc1NC(=O)CN1C(=O)COc2ccc(S(=O)(=O)NC3CCCC3)cc21 | inactive: -2.73% |  |
| CCOc1ccccc1NC(=O)c1nn(C)c2c1CSc1ccccc1-2 | inactive: -2.02% |  |
| Cc1ccc(-n2ncc(C(=O)NCCN3CCc4ccccc4C3)c2C2CCNCC2)cc1C | inactive: -0.119% |  |
| COc1ccc(NC(=O)c2cc(=O)c3ccc(C)c(C)c3o2)cc1Cl | inactive: 5.5% |  |
| CC(=O)c1cccc(Nc2ccc3cc(S(=O)(=O)N4CCCC4)ccc3n2)c1 | inactive: -2.3% |  |
| CCCn1c(=NC(=O)c2c(-c3c(F)cccc3Cl)noc2C)c(C(=O)OCC)cc2c(=O)n3ccccc3nc21 | inactive: -1.88% |  |
| CCCc1cc(=O)[nH]c(SCc2nc(-c3ccccc3F)no2)n1 | inactive: 12.3% |  |
| COc1ccc(-n2c(=O)c3c4c(sc3n3c(SC(C)C)nnc23)COC(C(C)C)C4)cc1 (stereo not drawn) |  | inactive |
| CCOC(=O)c1cc(S(=O)(=O)Nc2ccccc2OCC)[nH]n1 | inactive: 4.59% |  |
| Cc1ccccc1CSc1nc2c([nH]c3ccccc32)c(=O)n1C | inactive: -0.716% |  |
| CCOc1ccc(NC(=O)C(C)Sc2nc3ncccc3o2)cc1 (stereo not drawn) | inactive: 7.19% |  |
| Cc1cccc(CNC(=O)c2ccc(NC(=O)N3CCSc4ncccc43)cc2)c1 | inactive: 22.2% |  |
| CC1CCN(S(=O)(=O)c2ccc3c(c2)N(CC(=O)NCCCN2CCCC(C)C2)C(=O)CS3)CC1 (stereo not drawn) | inactive: -10.9% |  |
| COc1ccc(-n2nc(C(=O)Nc3cccc(C)n3)c3c4ccccc4n(C)c3c2=O)cc1 | inactive: -3.79% |  |
| Cc1ccc2c(c1)-c1ncc(C(=O)c3cc(Br)ccc3O)cc1CO2 | inactive: 40.9% |  |
| CC(=O)c1ccc(N2CCN(c3ncnc4c3cnn4C)CC2)cc1 | inactive: 11.1% |  |
| Cc1cc(C)cc(NC(=O)Cn2c(=O)n(Cc3ccc4c(c3)OCO4)c(=O)c3oc4ccccc4c32)c1 |  | inactive |
| Cc1cccc(CNC(=O)Cn2ccc3cc(S(=O)(=O)N4CCC(C)CC4)ccc32)c1 | inactive: -5.96% |  |
| COc1cccc(C2CC(=O)Nc3c2c(=O)n(C)c2nc4ccccc4n32)c1 (stereo not drawn) |  | inactive |
| CCOC(=O)C1CCN(C(=O)Cn2ncc3c([nH]c4ccccc43)c2=O)CC1 | inactive: 3.23% |  |
| CCOC(=O)c1c(C)[nH]c(C)c1S(=O)(=O)N(C)CC(=O)Nc1cccc(C(F)(F)F)c1 |  | inactive |
| COc1ccc(-c2ccc(CCC(=O)O)n2-c2cc(Cl)ccc2O)cc1 | inactive: -21.8% |  |
| O=C(Cn1c(=O)n(Cc2nc(-c3ccccc3)no2)c(=O)c2cc3c(cc21)OCO3)Nc1cccc(C(F)(F)F)c1 | inactive: -1.24% |  |
| COc1ccccc1-c1cc(C(F)(F)F)nc(S(=O)(=O)CCCC(=O)Nc2ccc(F)cc2F)n1 |  | inactive |
